# From article PMC4336329 (PLoS ONE, 2015)
# The whole screen tested about 310,000 compounds, of which about 14,000 (4.5%) showed an effect of 50% or more. The effect is printed as a negative number. The list shows a part of the results.
# Molecular target: human ether-à-go-go-related gene (hERG) potassium channel (human, UniProt Q12809)
# Experiment: primary screen, population patch clamp on CHO cells stably expressing hERG
# 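Further: peak tail current of the secondary pulse compared with the same well before compound.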
# human ether-à-go-go-related gene (hERG) potassium channel, sequence (Q12809 whole entry, looked up): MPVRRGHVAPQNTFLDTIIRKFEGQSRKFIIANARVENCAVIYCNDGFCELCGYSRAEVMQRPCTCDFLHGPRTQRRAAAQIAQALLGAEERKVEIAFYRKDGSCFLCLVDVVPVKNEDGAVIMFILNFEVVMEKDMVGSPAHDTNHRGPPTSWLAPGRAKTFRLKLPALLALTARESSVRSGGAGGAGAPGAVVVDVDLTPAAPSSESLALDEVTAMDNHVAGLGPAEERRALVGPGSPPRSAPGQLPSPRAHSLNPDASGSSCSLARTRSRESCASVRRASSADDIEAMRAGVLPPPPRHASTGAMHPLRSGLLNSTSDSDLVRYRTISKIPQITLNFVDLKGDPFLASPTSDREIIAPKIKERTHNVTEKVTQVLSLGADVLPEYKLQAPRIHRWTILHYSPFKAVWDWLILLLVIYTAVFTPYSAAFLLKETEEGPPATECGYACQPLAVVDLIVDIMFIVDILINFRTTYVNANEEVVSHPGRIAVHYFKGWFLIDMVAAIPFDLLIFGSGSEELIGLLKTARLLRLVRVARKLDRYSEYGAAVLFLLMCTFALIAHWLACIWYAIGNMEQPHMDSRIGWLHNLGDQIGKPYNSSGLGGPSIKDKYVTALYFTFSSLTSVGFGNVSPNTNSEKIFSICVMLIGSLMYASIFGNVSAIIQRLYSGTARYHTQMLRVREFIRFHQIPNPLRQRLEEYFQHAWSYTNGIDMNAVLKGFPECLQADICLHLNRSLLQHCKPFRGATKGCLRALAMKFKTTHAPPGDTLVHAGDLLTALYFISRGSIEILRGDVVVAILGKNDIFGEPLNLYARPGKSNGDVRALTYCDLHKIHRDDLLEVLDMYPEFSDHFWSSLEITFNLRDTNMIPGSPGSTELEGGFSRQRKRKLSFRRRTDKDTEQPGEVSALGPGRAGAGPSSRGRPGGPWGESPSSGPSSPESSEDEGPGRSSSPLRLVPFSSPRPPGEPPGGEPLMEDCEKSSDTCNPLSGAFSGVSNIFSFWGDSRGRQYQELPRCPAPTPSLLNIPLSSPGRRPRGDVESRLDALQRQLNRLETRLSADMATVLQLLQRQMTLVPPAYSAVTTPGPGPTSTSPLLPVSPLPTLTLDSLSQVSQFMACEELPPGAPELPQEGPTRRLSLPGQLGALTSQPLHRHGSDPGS
row,SMILES,"hERG current change (%, negative = inhibition) at 10uM [%]"
1,Cc1ccc(C2N(c3ccc(Cl)c(Cl)c3)C(=O)C3CCCN32)o1 (centres unmarked),-10.1
2,CCN1CCN(C(=S)c2ccc(OCC(=O)Nc3ccc(OC)cc3)cc2)CC1,11.2
3,CN(C)C1=C(Cl)C(=O)N(c2ccc(Cl)c(Cl)c2)C1=O,12.2
4,O=[n+]1c2c(n([O-])c3cc(Br)ccc31)CCC2,-2.98
5,CCOC(=O)CN1C(=O)C(Sc2n[nH]c(-c3cccc(C)c3)n2)CCc2ccccc21 (centres unmarked),6.35
6,Cc1cc(C(=O)N/N=C2\CC(=O)CC(C)(C)C2)n[nH]1,5.67
7,Cc1cc(C(=O)N/N=C/c2cn[nH]c2-c2ccccc2)cs1,-4.74
8,O=C(NC(=S)NC1CCSC1=O)c1cccc([N+](=O)[O-])c1 (centres unmarked),-1.9
9,Cc1nc2ccccc2n1CCc1ccccc1,-12.8
10,Cc1ccnc(N2CCC(C(=O)NCc3ccccc3F)CC2)n1,15.4
11,Cc1nc2ccccc2n1CC(=O)N/N=C/c1cccnc1,9.18
12,Cc1ccc(NC(=O)C2COc3ccccc3O2)nc1 (centres unmarked),13.9
13,O=C(CN1C(=O)S/C(=C\C=C\c2ccccc2)C1=O)Nc1cccc(O)c1,-12.8
14,CC1CCc2cc(F)ccc2N1C(=O)CCC(=O)O (centres unmarked),2.53
15,CC1(C)CC(=O)c2c(O)cc(OCC(=O)N3CCN(c4ccc(F)cc4)CC3)cc2O1,-47.1
16,Cc1cc(Cl)ccc1OCC(=O)NNC(=O)c1cccs1,7.9
17,CSCCC(NS(=O)(=O)c1ccc(Cl)cc1)C(=O)OCC(=O)N1CCOCC1 (centres unmarked),-14.1
18,CC1CCC(NC(=S)NCCN(C)C)CC1 (centres unmarked),18.1
19,COc1ccc(C(C(=O)NC2CCCC2)N(CCN(C)C)C(=O)c2snc(C(N)=O)c2N)cc1 (centres unmarked),-25
20,CCOC(=O)c1c(NC(=O)CSc2nnc(N)s2)sc(C)c1-c1ccc(C)cc1,14.4
21,Cc1nn(-c2ccccc2)c(-c2ccccc2)c1C(=O)O,7.74
22,COc1ccccc1N1CCN(CC(=O)Nc2nccs2)CC1,-19.3

row,SMILES,"hERG current change (%, negative = inhibition) at 10uM [%]"
1,O=C(COc1ccc2ccc(=O)oc2c1)Nc1ccc2c(c1)OCCO2,-7.75
2,CCOc1cc(/C=C2\SC(=O)N(CC(=O)Nc3ccccc3F)C2=O)cc([N+](=O)[O-])c1O,-4.42
3,CCOc1ccc(CCNC(=O)c2cnc(C)cn2)cc1OCC,13.8
4,O=C(c1cc(-c2ccccc2O)on1)N1CCCCCC1,8.75
5,O=C1/C(=C/c2cccc(Br)c2)SC(=S)N1CCC(=O)N(CCO)c1ccccc1,16.7
6,Cc1c(NC(=S)NC(=O)C(C)(C)C)cccc1[N+](=O)[O-],-3.64
7,O/C(=C\c1nc2ccccc2[nH]1)c1cccs1,-23.2
8,Cc1ccc(N/N=C2\CS(=O)(=O)N(C)c3ccsc32)cc1,7.82
9,O=C(NC1Cc2ccccc2C1)c1cc(COc2cccc(C(F)(F)F)c2)on1,21.6
10,COc1ccc(-c2csc(Nc3cc(C)ccn3)n2)cc1OC,13.6
11,CC(=O)Nc1ccc(S(=O)(=O)NCCc2ccccc2)cc1,0.996
12,CCCCSCCCNC(=O)c1ccc2c(c1)N(CC)C(=O)c1ccccc1S2=O (centres unmarked),-11.1
13,CCOC(=O)c1cnc2c(C(=O)OC)cccc2c1NCc1ccco1,-70.2
14,COC(=O)C1=C[C@@H](C(=O)OC)C2C3=C(C(=O)C24CCCCC4)[C@H](C)n2c(=O)n(C)c(=O)n2[C@@H]3C1 (some centres unmarked),4.06
15,COc1ccc(NS(=O)(=O)c2cccs2)c(OC)c1,-12.2
16,O=C(N1CCOCC1)N(Cc1cccs1)C1CCCC1,7.75
17,Cc1ccc(Sc2cc(C(=O)c3ccccc3C(=O)O)ccc2[N+](=O)[O-])cc1,18.8
18,COC(=O)c1ccsc1NC(=O)CCS(=O)(=O)c1ccc(Cl)cc1,6.67
19,Cc1ccc(S(=O)(=O)NC(=NCC(=O)O)c2ccccc2)cc1,2.94
20,COc1ccccc1CNC(=O)COC(=O)c1ccc(C)c(S(=O)(=O)N2CCOCC2)c1,2.68
21,CCOC(=O)C1(C(F)(F)F)N=C(c2ccccc2F)OC(N(C)C)=N1 (centres unmarked),0.889
22,Cc1ccc2ncc([N+](=O)[O-])n2c1,-5.11
